Values joined by “and” are separate entries in the source; they are usually repeats but may differ in a detail not shown here. Equal entries are not always repeated. This list was built around the results that the source calls inconclusive (neither active nor inactive); the mix of calls is not that of the screen. For some of these results: No potency is given beside an inconclusive call; the fits are too rough. Active and inactive are the calls of the source. Calls follow the shape of the dose curve; as a rule, active = well fitted curve in the direction sought with a large enough effect; inconclusive = small, poorly fitted or top-dose-only effect, or another doubt; inactive = no such curve, though single readings can be large; an effect the other way counts as inactive or inconclusive.
Key:
[1] = Viability qHTS for spleen associated tyrosine kinase inhibitor (SYKi) drug resistant MV4-11 cells (AID 1963824); details: SYKi-resistant MV4-11 viability, CellTiter-Glo, 72 h; series mostly up to 45 µM; also: nearly all actives have a fitted effect of over 35% in size; also: potency is read from the fitted curve at half-maximal effect
In short: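 CellTiter-Glo luminescence, read 10 min after reagent addition, reports viability after a 72 hr compound exposure. Cells are an MV4-11 line made resistant to SYK inhibition, seeded at 500 per well onto compound-containing plates.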

[2] = Quantitative highthroughput screen to assess conditional lethalithy of NOMO1 cells grown in Human Plasma-Like Medium with dialyzed fetal bovine serum (HPLM+ds) (AID 1963878); details: NOMO1 AML cells in HPLM+ds, CellTiter-Glo viability, 48 h; viability: at 45.8 µM (top of the series); also: potency is read from the fitted curve at half-maximal effect; nearly all actives have a fitted effect of over 35% in size
In short: (§1)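 Each medium arm—HPLM with 10% dialyzed FBS, or RPMI1640 with 5 mM glucose and 10% untreated or dialyzed FBS—was screened against an 11-point, 3-fold compound titration for 48 h at 37 °C, with CellTiter-Glo luminescence as endpoint.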

[3] = Quantitative highthroughput screen to assess conditional lethalithy of P12 Ichikawa cells grown in RPMI1640 with dialyzed fetal bovine serum (RPMI+ds) (AID 1963880); details: ATP luminescence, 48 h; Potency: P12-Ichikawa viability; series mostly up to 45.8 µM; also: potency is read from the fitted curve at half-maximal effect; nearly all actives have a fitted effect of over 35% in size
In short: as §1

[4] = Quantitative highthroughput screen to assess conditional lethalithy of P12 Ichikawa cells grown in RPMI1640 with untreated serum (RPMI+s) (AID 1963881); details: ATP luminescence, 48 h; Potency: viability; series mostly up to 45.8 µM; also: potency is read from the fitted curve at half-maximal effect; nearly all actives have a fitted effect of over 35% in size
In short: as §1

[5] = Cellular viability qHTS for adrenocortical cancer (ACC) cell line NCI-H295R (AID 1963990); details: CellTiter-Glo ATP luminescence, 48 h; activity change, negative = viability loss: at 46.1 µM (top of the series); also: nearly all actives have a fitted effect of over 60% in size; also: potency is read from the fitted curve at half-maximal effect;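 as to activity change, negative = viability loss: 0% = DMSO only wells and -100% = full killing with cytotoxic reference compound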
In short: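 Compound titrations (up to 46 uM final) are applied to NCI-H295R cultures for 48 h at 37C. Viable cell number is estimated by CellTiter-Glo signal, normalised to DMSO and doxorubicin controls.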

[6] = Quantitative highthroughput screen to assess conditional lethalithy of SEM cells grown in RPMI1640 with unreated serum (RPMI+s) (AID 1963883); details: SEM B-ALL cells, CellTiter-Glo viability, 48 h; viability: at 45.8 µM (top of the series)
In short: as §1

[7] = Quantitative highthroughput screen to assess conditional lethalithy of SEM cells grown in RPMI1640 with dialyzed fetal bovine serum (RPMI+ds) (AID 1963884); details: SEM B-ALL cells, RPMI+dialyzed FBS, CellTiter-Glo viability, 48 h; viability: at 45.8 µM (top of the series)
In short: as §1

[8] = Cellular viability qHTS for adrenocortical cancer (ACC) cell line SW-13 (AID 1963989); details: SW-13 ACC cells viability, CellTiter-Glo, 48 h; activity (max response): stronger effect = lower value; also: nearly all actives have a fitted effect of over 65% in size; also: potency is read from the fitted curve at half-maximal effect;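 as to activity (max response): cells grown in serum-free medium with ITS supplement; % is scaled to controls: 0 for no effect and ±100 for the full control effect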
In short: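 48 h treatment, SW-13 in ITS/DMEM serum-free; doses up to 46 uM; readout CellTiter-Glo luminescence; curve fit four-parameter logistic.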
Tags tell the direction and shape of the fitted curve.

For CC(C)Nc1cc(C(F)(F)F)cc2nc(NC(=O)c3cccnc3)nn12, the Potency [1] was inconclusive [cytotoxic, full curve, poor fit], the Potency [2] was inconclusive [cytotoxic, partial curve] and the Potency [3] was inconclusive [cytotoxic, full curve]. For the same compound, the Potency [4] was active: 2.35 µM and the Potency [5] was inconclusive [cytotoxic, single point].

For CN1CCN2c3ncccc3Cc3ccccc3C2C1 (configuration not stated), the Potency [6] was “inactive”.

With O=C(c1ccc(F)cc1)N1CCC[C@H](c2nc(-c3ccc(F)cc3)no2)C1 the Potency [7] was “inactive” and the Potency [5] was “inactive”.

With CC(=O)Oc1cccc2c1C(=O)c1c(OC(C)=O)cc(C(=O)O)cc1C2=O the Potency [1] was inconclusive [cytotoxic, single point] and the activity (max response) [8] was inactive: -7.7%.

With Cc1ccc(-n2c(C)cc(-c3nnc4n3CCCCC4)c2C)cc1 the Potency [1] was active: 8.33 µM and the Potency [8] was inconclusive [cytotoxic, single point].

In the case of Cc1nc(NC(=O)N2CCCC2C(N)=O)sc1-c1ccnc(C(C)(C)C(F)(F)F)c1 (configuration not stated), the Potency [1] is reported as active: 9.2 µM and the Potency [8] is reported as inconclusive [cytotoxic, partial curve].

In the case of COc1cc(OC)cc(N2CCN(C(=O)Nc3nc4cc(F)ccc4nc3OC)CC2)c1, the Potency [1] is reported as active: 1.05 µM, the Potency [8] is reported as inconclusive [cytotoxic, single point] and the Potency [5] is reported as inconclusive [cytotoxic, single point].

In the case of CC(=O)Nc1ncc([N+](=O)[O-])s1, the Potency [1] is reported as “inactive” and the activity (max response) [8] is reported as inactive: 10.5%.

With C[C@@H]1CC2C3C[C@H](F)C4=CC(=O)C=C[C@]4(C)[C@@]3(F)[C@@H](O)C[C@]2(C)[C@@]1(OC(=O)c1ccco1)C(=O)SCF (some centres not stated) the Potency [1] was inconclusive [cytotoxic, full curve], the Potency [8] was inconclusive [cytotoxic, partial curve] and the Potency [5] was inconclusive [cytotoxic, partial curve].

With CCN1CCN(C(=O)N[C@@H](C(=O)N[C@@H]2C(=O)N3C(C(=O)O)=C(CSc4nnnn4C)CS[C@H]23)c2ccc(O)cc2)C(=O)C1=O the Potency [1] was “inactive”, the activity (max response) [8] was inactive: 5.63% and inactive: -4.45% and the Potency [5] was “inactive”.

In the case of CNCCCN1c2ccccc2CCc2ccccc21, the Potency [1] is reported as inconclusive [cytotoxic, partial curve], the Potency [8] is reported as active: 20.6 µM and the Potency [5] is reported as inconclusive [cytotoxic, single point].

For O=c1c(-c2ccccc2)c1-c1ccccc1, the Potency [1] was inconclusive [cytotoxic, single point], the Potency [8] was inconclusive [cytotoxic, single point] and the Potency [5] was inconclusive [cytotoxic, single point].

With Cc1ccc(-c2ccc3c(ccc4sc5c(c43)NC[C@@H](C)NC5=O)n2)cn1 the Potency [1] was active: 2.91 µM, the Potency [8] was inconclusive [cytotoxic, single point] and the Potency [5] was active: 28.2 µM.

For CN1CCc2cccc3c2[C@H]1Cc1ccc(O)c(O)c1-3, the Potency [1] was active: 3.76 µM, the Potency [8] was inconclusive [cytotoxic, single point] and the Potency [5] was inconclusive [cytotoxic, single point].

From PubChem BioAssay (NCATS)
